According to a collection of fitness landscapes (doi:10.1016/j.celrep.2020.107928):
Over roughly 81,000 sequences, “one-hybrid fitness for binding NBS DNA” has its median near -0.1; the highest 2% begin near 0.36. Some of the results follow.

B1: Caulobacter ParB omega fusion; a variant is named by its letters at X, in order, B8GW30 (parent)
chain: MESVVVGEPGMSEGRRGLGRGLSALLGEVDAAPAQAPGEQLGGSREAPIEILQRNPDQPRRTFREEDLEDLSNSIREKGVLQPILVRPSPDTAGEYQIVAGERAWRAAQRAGLKTVPIMVRELDDLAVLEIGIIENVQRADLNVLEEALSYKVLMEKFERTQENIAQTIGKSXSHVANXMRLLXLPDEVQSYLVSGELTAXHARAIAAAADPVALAKQIIEGGLSVRETEALARKAPNLSAGKSKGGRPPRVKDTDTQALESDLSSVLGLDVSIDHRGSTGTLTITYATLEQLDDLCNRLTRGI

Variants of: B1
Experiment: one-hybrid fitness for binding NBS DNA (the Noc-binding site; scaled: cognate 1, non-cognate 0); higher = stronger binding
Conditions: with NBS DNA site
Procedure, shortened: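 Fitness here means the log change in variant-to-wild-type read ratio between plasmids sequenced before and after selection. That scale was set so cognate equals 1 and non-cognate equals 0. The selection was a bacterial one-hybrid screen of Caulobacter ParB libraries, four specificity codons randomised, in E. coli USO carrying a HIS3 reporter with the site 19 bp from the promoter, grown 48 hours at 37°C on M9-minus-histidine with 0.1 mM IPTG and 5 mM 3-AT.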

one-hybrid fitness for binding NBS DNA, ≤ 0.2:
RPME
NVNG
ICWE
KMSV
KKAM
QLFA
LQKI
CGMG
FPCM
TNCG
DYPL
WKNR
WVLT
DGRC
PRPH
QILC
VEHK
GIGA
DVSC
QLAM
IPPC
SIWS
PRLM
TQAF
LQAF
NPNR
TIDS
SLRD
GDWS
PIWE
VFLG
QCSE
GWKM
AKPS
CSVW
QYPC
WLTL
TGTF
PCCD
HCNG
RPVC
RWRN
HCKT
THIG
DHAR
VLWF
THKW
RKIP
SCMY
LQDE
NLFL
QERS
REMM
SCPS
YQYT
YPSC
YFWG
AFWA
SVMS
QYGM
LLSE
HLYC
ASMW
HHIQ
NPCR
DICG
YCQV
PWST
VLNS
TDSQ
YLMH
HRAF
FHEY
PKLC
VEKT
YDAS
GDDS
YANG
RMAV
RAPY
GQVT
ARWA
MQPS
KTKF
NRLH
GYRD
QHME
NQLR
SGEG
QAGL
DHQQ
LNVT
IKVT
QPVV
IQLS
YMYR
QDAV
GRDR
RHAD
GIHG
GIPC
WIHR
CNGS
CRPV
KTIE
YCAS
PLSN
QGSF
CSVL
TRRP
SAMS
YECG
DCQM
RFWE
QIES
AYKF
CPQC
NPAG
VNHR
ADNG
CLIT
PRST
YCTL
RSYN
SEWI
LFAL
TCMG
VSPP
YDRG
SACG
SFMT
KLNR
RMNF
TMSL
ASIL
MDEC
RDPS
TMQR
PDLM
FDLM
DART
TTFC
CKHT
ISYG
AQMG
HGLF
QVKF
SVVF

one-hybrid fitness for binding NBS DNA, 0.256:
QREY

one-hybrid fitness for binding NBS DNA, 0.291:
RTHA

one-hybrid fitness for binding NBS DNA, 0.331:
QIGT

one-hybrid fitness for binding NBS DNA, 0.254:
QRYI

one-hybrid fitness for binding NBS DNA, 0.289:
ITKR
